In PubChem BioAssay AID1346428 (National Center for Advancing Translational Sciences (NCATS), 2018):
Several values for one entry are separate records, joined by “and”; a condition that tells them apart may be missing. Equal values may be shown once. The campaign covered roughly 48,000 compounds. About 1,200 (2.5%) were called active. Roughly 2% stayed inconclusive and do not appear here.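 How the source made its calls: active means activation of at least 60% and not above a set upper limit (about 1 call in 100 departs from these limits); inconclusive means activation of 40% to 60%, or above that upper limit; inactive means activation under 40%.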 The list shows a part of the results.

target: Probable G-protein coupled receptor 32 (Homo sapiens) (UniProt O75388); test: qHTS for Agonists of Human Resolvin D1 Receptor DRV1; conditions: CHO-K1 GPR32 beta-arrestin PathHunter luminescence, 90 min; at 76.9 µM; hits give high values; zero percent set by DMSO-only wells; further: 0% is about no effect
Procedure, shortened: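 Beta-arrestin recruitment read-out: luminescence from complemented beta-Gal in CHO-K1 GPR32 PathHunter cells, measured 1 h after detection reagent at ambient temperature following 90 min compound exposure at 37 °C; DMSO served as basal (EC0) control.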

Sequence of UniProt O75388 (O75388 whole entry, looked up): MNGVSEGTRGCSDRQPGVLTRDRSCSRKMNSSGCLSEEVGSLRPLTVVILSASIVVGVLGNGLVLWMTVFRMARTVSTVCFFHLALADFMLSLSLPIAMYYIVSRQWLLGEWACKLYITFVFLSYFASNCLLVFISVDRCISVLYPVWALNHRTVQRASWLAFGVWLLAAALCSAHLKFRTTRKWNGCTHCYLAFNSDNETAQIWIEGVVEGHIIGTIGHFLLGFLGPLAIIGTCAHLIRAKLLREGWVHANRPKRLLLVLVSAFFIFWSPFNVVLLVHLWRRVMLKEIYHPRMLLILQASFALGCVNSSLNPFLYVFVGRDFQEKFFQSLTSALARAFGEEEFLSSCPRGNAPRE

Row | SMILES | activation
1 | O=C(NCc1ccc(F)cc1)c1cc2n(n1)CCCN(Cc1ccc(F)cc1)C2=O | inactive: 30.8%
2 | Cc1ccc(OCC(=O)OCc2cc(=O)n3nc(-c4cccs4)sc3n2)cc1C | inactive: 25.9%
3 | Cc1cc(C)c(NC(=O)Cn2c(=O)n(-c3ccc(CC(=O)NCC4CCCO4)cc3)c(=O)c3ccccc32)c(C)c1 (stereo not given) | inactive: -4.4%
4 | Cc1ccc(-c2nc3n(n2)C(=O)CC(c2ccc(Cl)cc2)S3)cc1 (stereo not given) | inactive: 40.5%
5 | Cc1cc(Cl)ccc1NC(=O)C(=O)NCc1ccco1 | inactive: 22.8%
6 | Cc1ccc(C(=O)Nc2ccc(NC(=O)c3cccs3)cc2)cc1C | inactive: -13.9%
7 | Cc1ccsc1CN(C(=O)COc1ccc(Br)cc1)C1CCS(=O)(=O)C1 (stereo not given) | inactive: -20.4%
8 | Cc1ccc(OCC(=O)Nc2cc3nn(-c4ccccc4)nc3cc2C)cc1 | inactive: 1.31%
9 | CCOc1ccc(Sc2cc(C(=O)NC(C)c3ccccc3)c3ccccc3n2)cc1 (stereo not given) | inactive: -16%
10 | O=C(Cn1c(=O)c2cccn2c2ccccc21)NCCc1ccccc1 | inactive: -14.7%
11 | CCOc1ccccc1NC(=O)Cn1cc(C(=O)c2cccc(OC)c2)c(=O)c2ccc(C)nc21 | inactive: 1.15%
12 | COc1ccccc1N1CCN(CCCCN2C(=O)c3ccccc3C2=O)CC1 | inactive: -5.44%
13 | Cc1c(CCNC(=O)c2ccc(Br)o2)sc2nc(-c3ccc(F)cc3)nn12 | inactive: 15.8%
14 | COc1ccc2c(CNCc3cccs3)c(C(=O)O)n(Cc3ccccc3)c2c1 | inactive: 43.8%
15 | COc1ccc(NC(=O)Cn2c(SCc3cc(C)ccc3C)nc3ccncc32)c(OC)c1OC | inactive: 3.99%
16 | CCN1CCN(c2nc3c(S(=O)(=O)c4ccc(Br)cc4)nnn3c3ccsc23)CC1 | inactive: -4.61%
17 | O=C(CSc1nnc(CNC(=O)c2cccc(F)c2)n1-c1ccccc1)Nc1ccccc1F | inactive: -7.23%
18 | Cc1ccc(NC(=O)Cn2cnc3sc(C(=O)O)c(C)c3c2=O)cc1Cl | inactive: -0.888%
19 | Cc1ccc2nc(NC(=O)COc3ccc(F)cc3)sc2c1 | inactive: -2.73%
20 | CCc1cccc(NC(=O)CSC2=Nc3ccccc3N=C(c3ccc(F)cc3)C2)c1 | inactive: -20.3%
21 | CCOc1ccccc1C(=O)Nc1ccc(S(=O)(=O)Nc2nc(C)cc(C)n2)cc1 | inactive: 1.78%
22 | COc1cc(NC(=O)CN(c2ccc(C)cc2)S(=O)(=O)c2cccc3nonc23)cc(OC)c1 | inactive: -28.4%

Row | SMILES | activation
23 | COc1ccc2c(c1)c1c(c(=O)n(Cc3ccccc3)c(=O)n1CC(=O)NCc1ccccc1Cl)n2C | inactive: 5.04%
24 | Fc1ccc(-c2noc3ncnc(NCCc4ccccc4)c23)cc1 | inactive: 19.1%
25 | CCOc1ccc(-c2nonc2NC(=O)COc2c(C)cc(C)cc2C)cc1OCC | inactive: 19%
26 | CCCCCn1c(C(C)NC(=O)c2ccccc2)nc2ccccc21 (stereo not given) | inactive: 2.67%
27 | COc1ccc(Nc2nc(-c3ccc(C)cc3)nc3ccccc23)c(OC)c1 | inactive: -0.454%
28 | CCc1nn(CC(=O)NCCc2ccc(OC)cc2OC)c(=O)c2cc3c(OC)cccc3n12 | inactive: 33.8%
29 | CCOc1cc(CNC(=O)C2COc3ccccc3C2)cc(OCC)c1OCC (stereo not given) | inactive: -17.5%
30 | O=C(c1ccc2c(c1)N(Cc1ccc(Cl)cc1)C(=O)c1ccccc1S2=O)N1CCOCC1 (stereo not given) | inactive: -5.17%
31 | Cc1cccc(C)c1OCC(C)N (stereo not given) | inactive: 10.8% and inactive: 2.05%
32 | CCOc1ccccc1N1CC(c2nc3ccccc3n2CCOc2ccccc2)CC1=O (stereo not given) | inactive: 0.107%
33 | CCc1cccc(NC(=O)Cn2c(=O)ccc3cc(S(=O)(=O)N4CCC(C)CC4)ccc32)c1 | inactive: 12.2%
34 | CCc1ccc(CNc2ncnc3c2nc2n3CCCC2)cc1 | inactive: -4.72%
35 | Cc1cc(C)c2c(CC(=O)N3CCN(c4cccc(Cl)c4)CC3)coc2c1 | inactive: -34.4%
36 | CC1CCc2nc3ncn(Cc4ccccc4C#N)c(=O)c3cc2C1 (stereo not given) | inactive: -18.8%
37 | COc1cccc(N2CCN(C(=O)c3ccc(Cn4c(=O)[nH]c5cc(OC)c(OC)cc5c4=O)cc3)CC2)c1 | inactive: -1.66%
38 | COc1ccc(C(CNC(=O)c2oc3ccc(Cl)cc3c2C)N2CCCCC2)cc1 (stereo not given) | inactive: 1.95%
39 | CCCC(=O)N(c1ccc2oc3c(c2c1)CCCC3)S(=O)(=O)c1cc(C)ccc1C | inactive: -13%
40 | O=C1CC(c2nc3ccccc3[nH]2)CN1c1cccc(Cl)c1 (stereo not given) | inactive: 24.3%
41 | Nc1nnc2c(n1)[nH]c1ccccc12 | inactive: 18.2%
42 | COc1cccc(CSc2nc3cc(C(=O)NC4CCCC4)ccc3c(=O)n2Cc2ccccc2)c1 | inactive: -16.5%
43 | COC(=O)c1ccc(CSc2nc3c([nH]c4ccccc43)c(=O)n2-c2ccc(Cl)cc2)o1 | inactive: -4.7%
44 | CCCCNc1nc2c(c(=O)n(Cc3ccc(Cl)cc3)c(=O)n2C)n1C | inactive: -29.3%

Row | SMILES | activation
45 | COc1ccc(CN2CCN(Cc3cc(=O)oc4cc(C)ccc34)CC2)c(OC)c1OC | inactive: -5.68%
46 | N#Cc1cc(NC(=O)C(=O)O)c(Cl)c(NC(=O)C(=O)O)c1 | inactive: -16%
47 | O=C(CSc1nc2ccccc2n1Cc1ccccc1)N1CCN(c2ccc(F)cc2)CC1 | inactive: -13.4%
48 | COc1ccc(-n2cc(C(=O)NCc3ccccc3)c3ccccc3c2=O)cc1 | inactive: -7.19%
49 | Cc1cc(Cl)ccc1NC(=O)c1cc(S(=O)(=O)N2CCOCC2)cn1C | inactive: -5.55%
50 | CCC(=O)N1CCc2cc(Br)cc(S(=O)(=O)Nc3ccc(C)cc3C)c21 | inactive: -6.32%
51 | COc1ccc(CC(=O)N2CCc3cc(OC)c(OC)cc3C2COc2ccc(OC)cc2)cc1 (stereo not given) | inactive: -4.32%
52 | CCN(C(=O)c1cc2c(s1)-c1c(C)cccc1OC2)c1ccccc1F | inactive: -10.7%
53 | CCc1cc(=O)oc2c3c(c(Cl)cc12)OCN(Cc1cccc(OC)c1)C3 | inactive: -37.2%
54 | CC(C)Oc1ccc(CNC(=O)CCCN2C(=O)c3cccnc3Oc3ccc(Cl)cc32)cc1 | inactive: -20.1%
55 | CCOC(=O)c1scc(-c2ccccc2)c1S(=O)(=O)Nc1cc(OC)cc(OC)c1 | inactive: -35.9%
56 | COc1ccc(-n2nc(C(=O)N(C)c3cc(C)ccc3C)c3c4ccccc4n(C)c3c2=O)cc1Cl | inactive: -1.52%
57 | O=C(Cn1cc(SCc2c(F)cccc2Cl)c2ccccc21)N1CCCCCC1 | inactive: -24.9%
58 | CCOc1ccc(NS(=O)(=O)c2ccc(-c3cc(C)no3)s2)cc1 | inactive: -5.7%
59 | Cc1ccc(C)c(NC(=O)c2cnn(-c3cccc(F)c3)c2C2CCN(C(=O)OC(C)(C)C)CC2)c1 | inactive: -6.04%
60 | CCN(c1ccccc1)S(=O)(=O)c1ccc(NC(=O)c2cc(=O)c3cc(C)cc(C)c3o2)cc1 | inactive: 30.6%
61 | Cc1c(Cl)cccc1NC(=O)c1cnc2sc(N3CCOCC3)nn2c1=O | inactive: -8.5%
62 | CCC(=O)N1c2ccccc2CC1C(=O)NCCc1ccccc1C (stereo not given) | inactive: -8.47%
63 | O=C(Nc1ccc2nn(-c3ccccc3)nc2c1)c1cc2ccccc2o1 | inactive: 5.78%
64 | Cc1ccc(S(=O)(=O)Nc2ccc3c(c2)CCCN3C(=O)c2cccs2)cc1 | inactive: -20.1%
65 | Cc1cc2ccccc2n1CCNC(=O)c1cccc(Br)c1 | inactive: 25.1%
66 | O=C(CSc1cn(CC(=O)N2CCOCC2)c2ccccc12)Nc1ccccc1F | inactive: -14.4%

Row | SMILES | activation
67 | COc1ccc2oc(=O)cc(CN3CCN(Cc4ccccc4)CC3)c2c1 | inactive: -10.6%
68 | COc1ccc(OC)c(CCNC(=O)CCCn2c(=O)c3cccn3c3ccccc32)c1 | inactive: -13.2%
69 | O=C(NCc1cccc(Cl)c1)C1CCN(c2nn3cc(-c4ccc(F)cc4)nc3s2)CC1 | active: 62.3%
70 | COc1ccc(-c2cn3nc(N4CCCC(C(=O)Nc5cc(Cl)ccc5OC)C4)sc3n2)cc1 (stereo not given) | inactive: -9.3%
71 | Cc1ccc(CNC(=O)c2c(-c3ccc(F)cc3F)noc2C)o1 | inactive: -16.2%
72 | Cc1cc(C)c(NC(=O)Cn2nnc(C(=O)NCc3cccs3)c2N)c(C)c1 | inactive: -0.838%
73 | CCN(CC)c1ccc2cc(-c3nc(-c4ccccc4)no3)c(=O)oc2c1 | inactive: 7.79%
74 | CSc1ccc(CNC(=O)c2ccc3c(c2)N(C)C(=O)C2CCCCN32)cc1 (stereo not given) | inactive: -7.41%
75 | CC(C)COc1ccc(C(=O)Nc2scc(-c3ccc(Br)cc3)c2C(=O)OC(C)C)cc1 | inactive: -20.7%
76 | CCOC(=O)c1cc2c(=O)n3ccccc3nc2n(Cc2ccco2)c1=NC(=O)c1ccc(OC)cc1 | inactive: -28.8%
77 | COc1ccc(CC(=O)NCC(c2ccc(N(C)C)cc2)N2CCOCC2)cc1OC (stereo not given) | inactive: -8.66%
78 | Cc1ccccc1OCc1ccc(-c2nc(C#N)c(N3CCCCC3)o2)o1 | inactive: -28.2%
79 | COc1cc(NC(=O)Cn2c(=O)n(-c3ccccc3)c(=O)c3c4c(sc32)CCCC4)cc(OC)c1 | inactive: -10.1%
80 | O=c1ccc2cc(S(=O)(=O)NCc3ccc(Cl)cc3)ccc2[nH]1 | inactive: 4.57%
81 | O=C(NCc1ccccc1)c1cccc(N2CCCS2(=O)=O)c1 | inactive: 10.9%
82 | COc1ccc(C(=O)COC(=O)CCCC(=O)Nc2ccc(C(C)=O)cc2)cc1 | inactive: 18.9%
83 | CCOc1ccc(-n2nc(CO)c(C(=O)NCC(c3ccccc3)c3ccccc3)n2)cc1 | inactive: -9.37%
84 | Cc1nc2cccnc2n1C1CCN(C(=O)Nc2ccccc2C(F)(F)F)CC1 | inactive: -11.3%
85 | COc1ccc(CCN(C)CCCN2CCc3cc(OC)c(OC)cc3CC2=O)cc1OC | inactive: -47.7%
